# In all, about 33,000 sequences were measured (“E-score (-0.5 to 0.5)”: median about -0.043, highest 2% from about 0.37 on). The list shows a part of the results.
# Biological target: T1, Upc2 (UniProt Q12151)
# T1 sequence: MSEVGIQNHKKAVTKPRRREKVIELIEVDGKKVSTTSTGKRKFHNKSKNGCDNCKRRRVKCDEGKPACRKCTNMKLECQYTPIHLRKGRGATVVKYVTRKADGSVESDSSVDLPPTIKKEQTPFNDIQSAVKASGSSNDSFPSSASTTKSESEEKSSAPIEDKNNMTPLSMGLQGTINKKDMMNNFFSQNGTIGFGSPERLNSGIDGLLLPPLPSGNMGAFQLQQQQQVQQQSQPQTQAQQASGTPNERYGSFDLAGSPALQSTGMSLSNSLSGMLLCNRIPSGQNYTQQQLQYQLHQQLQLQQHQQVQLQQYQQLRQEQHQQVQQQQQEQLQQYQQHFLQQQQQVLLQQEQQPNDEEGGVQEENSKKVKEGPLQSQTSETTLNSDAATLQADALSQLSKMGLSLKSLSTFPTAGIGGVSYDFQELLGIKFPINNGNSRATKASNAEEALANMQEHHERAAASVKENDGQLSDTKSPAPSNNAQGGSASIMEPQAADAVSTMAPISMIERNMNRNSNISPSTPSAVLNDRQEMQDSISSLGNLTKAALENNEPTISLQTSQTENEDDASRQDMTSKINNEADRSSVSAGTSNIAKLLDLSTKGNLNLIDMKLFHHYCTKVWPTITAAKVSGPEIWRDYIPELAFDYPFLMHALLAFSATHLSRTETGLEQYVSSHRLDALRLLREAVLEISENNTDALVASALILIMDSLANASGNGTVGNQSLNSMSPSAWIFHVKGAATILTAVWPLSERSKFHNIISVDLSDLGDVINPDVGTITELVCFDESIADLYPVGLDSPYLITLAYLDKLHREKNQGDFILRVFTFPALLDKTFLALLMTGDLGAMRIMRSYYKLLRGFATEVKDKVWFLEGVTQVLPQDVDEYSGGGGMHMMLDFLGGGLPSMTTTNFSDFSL
# Assay: PBM E-score (8-mer binding enrichment) (E-score (-0.5 to 0.5)); higher = stronger / more preferred TF binding; most listed sequences are background and not binding sites
# Conditions: protein concentration: 200 nM; construct: GST-full length
# Experimental: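 Universal 'all 10-mer' protein binding microarrays (Agilent AMADID 015681) probed with GST-tagged S. cerevisiae TFs (full-length or DBD) made by in vitro transcription/translation (PURExpress), about 100-200 nM. Bound TF was detected with fluorescent anti-GST. Each ungapped 8-mer (which stands for itself and its reverse complement) is scored by the PBM enrichment score (E-score), a modified Wilcoxon-Mann-Whitney statistic from -0.5 to +0.5, computed with the Universal PBM Analysis Suite. Scale: above 0.35 generally sequence-specific binding.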
row,Sequence,PBM E-score
1,GTACTCCA,-0.0733
2,GAATTCTA,-0.087
3,GAAGTTCC,-0.179
4,AGCATCAA,-0.104
5,ACGTCCGG,-0.0587
6,AGTTAGGC,-0.0155
7,AACGTCAT,0.113
8,GTCCAACA,-0.0297
9,CTTATGGC,-0.0984
10,AAGACCGT,0.0184
11,GCGCCTCC,-0.133
12,TAACTCCA,-0.0975
13,CTAGCCGA,-0.102
14,AGTCCCGA,-0.167
15,CTCGCTGC,-0.118
16,GGGCTTTA,-0.0974
17,CACTTGTC,-0.071
18,ACGCTGAA,0.0992
19,CAAATGAC,-0.272
20,GCGTAGTA,-0.192
21,AATAGCAC,-0.143
22,GCCAGGCC,-0.0468
23,AACTCAAC,0.00714
24,GTCATCAA,-0.0824
25,ATGGGATG,-0.211

row,Sequence,PBM E-score
1,ACCTAAGG,-0.226
2,ATTTTCGC,-0.00681
3,CTGGCACA,-0.257
4,CACGTTGA,-0.177
5,GGTTCGGA,-0.168
6,AGCAAACG,0.316
7,ATGAGCGA,0.315
8,ATTTAACC,-0.0686
9,GTTTAGCA,0.233
10,TCTACAGA,-0.13
11,AAGCGAGA,0.264
12,ACCTCGGA,0.0635
13,GCGGCACA,-0.164
14,GACCCGGC,-0.0556
15,AGATGCGA,0.114
16,CTCCGGGA,-0.123
17,CCAAGAGA,-0.354
18,AGTTGAAA,-0.237
19,CGTTTTGA,0.131
20,CCGACAAG,-0.0687
21,ATATGTGA,-0.168
22,CCCTCTCC,-0.339
23,CCAGTGGA,-0.274
24,CATCTGCG,-0.0711
25,TACCTAAA,0.00388

row,Sequence,PBM E-score
1,GGGCGGAC,-0.202
2,CTGTGCGC,-0.107
3,GTTGAAAC,0.0874
4,TGGCACAA,-0.131
5,ATAACTGA,0.0462
6,CTTCACAC,0.00226
7,AGGTTCAA,-0.0255
8,ATAGTAGG,-0.162
9,TCGTGGAA,0.0697
10,AAGAAGCC,-0.0707
11,CGAGATTA,0.133
12,GAGTAATA,0.0679
13,ACATTACT,-0.107
14,CCATTAAC,0.0793
15,AGACTCTC,-0.0264
16,CCGGTTGC,0.00729
17,ACACCGTG,-0.198
18,AATGGCGA,-0.129
19,GGTGTGAA,-0.141
20,CGTTGCAG,0.0589
21,ACATTAGA,-0.078
22,CCTAATAG,-0.215
23,GTGCTTTA,0.166
24,CACACATG,-0.19
25,GAGAGCGA,0.209

row,Sequence,PBM E-score
1,CCTTTGCC,-0.176
2,AATTCGTA,0.433
3,CCTAGCTC,-0.228
4,TAATCGAA,0.226
5,GGTTTTAA,0.13
6,AGACCCTG,-0.259
7,AACATGCA,0.0114
8,CCACTGCA,-0.289
9,CAAGATGG,-0.299
10,GGCTTGAA,-0.182
11,CCAACCCG,0.0328
12,TCGATAAA,0.162
13,CACTTTGG,-0.0881
14,CATCTAAG,-0.0826
15,AGACCTAC,-0.0654
16,AGGGGTTA,-0.18
17,GCCTTCAC,-0.164
18,CAAATTGG,-0.0221
19,AAATGGGA,-0.253
20,GCGAAAAA,0.148
21,AGACGGCC,-0.222
22,GATGGCGC,-0.156
23,CGTGGATC,-0.0373
24,ATAGGCAT,-0.102
25,CTGTCAAA,-0.0412

row,Sequence,PBM E-score
1,GTCACACA,-0.147
2,ACTACTAT,0.068
3,GCGAGTCC,-0.0536
4,CTGTCGCC,-0.209
5,ATCGGGCC,-0.122
6,GAGCTCTA,-0.155
7,CGCCTGGA,-0.212
8,AATCAACA,0.0242
9,CTTGAGCC,-0.23
10,ACGTAAGA,0.146
11,TAATTCAA,0.145
12,GACTCGAA,-0.194
13,AGTGGAAA,-0.142
14,AAGCAGAC,-0.191
15,CTTCATAC,0.114
16,ATCAACAC,-0.0611
17,ACATCTAG,-0.0171
18,TCTAGACA,-0.173
19,CCGTGCGA,0.131
20,CTGAAAGA,-0.0424
21,ACCATGGC,0.0704
22,CCATCCCG,-0.133
23,AAAAGATA,0.141
24,CTTATCCA,-0.0711
25,AACTCCTG,-0.179

row,Sequence,PBM E-score
1,TATCTCAA,0.118
2,AACCGATA,0.319
3,GATTTGCA,-0.0802
4,GGCAATAC,0.154
5,CGAGACCG,0.153
6,GCCTTCGA,-0.0568
7,ACGTGCTC,-0.0592
8,CAGAAGCA,-0.142
9,ACGGCTCA,0.00728
10,ATACTAAC,0.0686
11,ACGTATCG,0.22
12,AGCGAGAA,0.23
13,TCAACAGA,-0.169
14,CGCAGTGC,-0.23
15,CGGAATTC,-0.0069
16,ACCGTGCC,-0.113
17,CTTATTAC,0.0164
18,CCCGGGCG,-0.123
19,ACGTACTG,0.0569
20,CACGTAGG,-0.165
21,ACAATTCA,-0.072
22,TCCTGTAA,0.003
23,ATGTATTC,-0.166
24,ACACCTGC,-0.0696
25,ACCTACTG,-0.192

row,Sequence,PBM E-score
1,CTGCGAGA,-0.0705
2,GATCACCC,-0.0409
3,ACTGCTGG,-0.172
4,CGTGCACC,-0.00289
5,ACGAGTAA,0.348
6,GCTCAGTA,0.199
7,ATACAGCG,-0.129
8,CTTATAAC,0.179
9,AAAGTTTG,-0.135
10,CTACCCAC,-0.137
11,CTCGGCCA,-0.0714
12,ATTTATAC,0.41
13,AATTGGCC,-0.129
14,GCCTTCCA,-0.285
15,TATCATGA,0.0143
16,GACCCGAC,-0.0439
17,ACCTTATA,0.0597
18,CCAAACGG,0.365
19,ACCTAGAA,-0.242
20,CGTTACTC,0.059
21,CCGGTTAA,0.0326
22,CGCAGGTA,0.145

# — the supplement of paper PMC3334620
